Reference: article PMC12040169 (PLOS Biology, 2025)
Some of the results follow.

system: T1, C. trachomatis L2/434/Bu expressing GFP (CTL2-GFP); set-up: species or system HeLa; C. trachomatis total inclusion area by high-content imaging, normalised to DMSO; settings: total inclusion area; 28.5 h, 10 µM; inhibitor
T1 construct: L2/434/Bu GFP intracellular growth in HeLa cells
How it was run: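 Imaging read-out: GFP inclusions and Hoechst nuclei captured by high-content imaging after fixation. Inclusion area/number = chlamydial growth; nuclei count = host cell viability. MIC calculated per earlier method.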

| Compound | % of control remaining |
| --- | --- |
| Cc1ccc(OCc2ccc(Cl)nc2)c(Br)c1 [CBK002842] | 69.7179 |
| Cc1cc2c(cc3c(=O)n(CC(=O)N4CCC(C)CC4)nc(C)n32)o1 [CBK283590] | 102.621 |
| Cc1cc(=O)oc2cc(Sc3ccc([N+](=O)[O-])cc3)ccc12 [CBK002954] | 86.4132 |
| CC(C)C(NS(=O)(=O)c1ccc([N+](=O)[O-])cc1)C(C)C [CBK267656] | 95.3087 |
| Cc1nc(C)c(C(=O)c2coc3ccc(O)cc23)o1 [CBK027631] | 47.6327 |
| O=C(CCn1cnc2cc(-c3noc(-c4cnccn4)n3)ccc21)N1CCCC1 [CBK288595] | 112.897 |
| O=C(CCC1CCCC1)N1CCC(O)(c2cccnc2)CC1 [CBK283603] | 95.0223 |
| c1ccc(OCCSc2nc3ccccc3nc2N2CCCC2)cc1 [CBK103694] | 91.8365 |
| O=C(O)c1cccc(N2C(=O)C3C4C=CC(C3C2=O)C2C(=O)N(c3cccc(C(=O)O)c3)C(=O)C42)c1 (stereo not shown) [CBK261495] | 87.8032 |
| COc1cc(Nc2cncc(-c3ccc(N)cc3)n2)cc(OC)c1OC [CBK065642] | 30.9501 |
| O=C(NC1(c2ccc(F)cc2)CCCC1)c1cnn2cccnc12 [CBK283612] | 86.7896 |
| CCC(CN1CCOCC1)NC(=O)Cc1coc2cc(C)cc(C)c12 (stereo not shown) [CBK282812] | 79.4541 |
| CC(NC(=O)CC1(N2CCOCC2)CCCC1)c1cccc(C#N)c1 (stereo not shown) [CBK305320] | 42.0192 |
| Cc1ccc(S(=O)(=O)N2CCOCC2)cc1C(=O)Oc1cccc2cccnc12 [CBK269726] | 96.3897 |
| CCOC(=O)Cn1nc(CC)n2c(cc3sccc32)c1=O [CBK284073] | 96.5541 |
| CC1CCCN(Cc2c(C3CCOCC3)[nH]c3ncccc23)C1 (stereo not shown) [CBK284687] | 94.9347 |
| CN(C)CCn1c(=O)[nH]c2ncc(-c3cc(C(F)(F)F)cc(C(F)(F)F)c3)nc21 [CBK065028] | 103.589 |
| CC(Oc1ccc(-c2ccccc2)cc1)C(=O)Nc1ccc(S(N)(=O)=O)cc1 (stereo not shown) [CBK267979] | 92.0399 |
| COc1cc(Br)c(/C=C(/C#N)C(=O)Nc2ccc(O)cc2)cc1OC [CBK262733] | 86.302 |
| O=C(NCC1Cc2ccccc2O1)c1cccc(NC(=O)c2ccco2)c1 (stereo not shown) [CBK298302] | 72.8907 |
| COc1cc(CNc2ncc(-c3ccc(N4CCOCC4)cc3)n3ccnc23)cc(OC)c1OC [CBK091219] | 93.2449 |
| CC(=O)N(C)c1nc(-c2cccc(N(C)C)c2)ccc1C(=O)N(C)C [CBK076555] | 114.422 |
| Cc1cnc2c(c1)cc(C1CCOCC1)n2CC(=O)NC1CCCC1 [CBK284755] | 104.078 |
| COc1cccc(Nc2cc(-c3ccco3)ncn2)c1 [CBK090740] | 87.6851 |
| O=C(Nc1ccccc1)C(N1CCCCC1)N1CCCCC1 [CBK263425] | 102.388 |
| CCCC(=O)NCCn1ncc(-c2ccncc2)c1C1CC1 [CBK282116] | 103.855 |
| O/N=C1/CCCCCC1NO (stereo not shown) [CBK264368A] | 115.559 |

| Compound | % of control remaining |
| --- | --- |
| CC(C)CN1CC(C(=O)N(C)CC2OCCc3ccccc32)CC1=O (stereo not shown) [CBK282093] | 74.6237 |
| COc1ncc(-c2cncc(N3CCN(c4ccc(OC)c(OC)c4)CC3)n2)c(OC)n1 [CBK065169] | 80.0562 |
| COCCNC(=O)[C@@H](C)C1CC[C@@]2(C)CC[C@H](NS(C)(=O)=O)[C@@H](C)[C@@H]2[C@H]1O (stereo partly shown) [CBK289457] | 108.54 |
| O=C(CN1CCC(c2cncc(-c3cccc(C(F)(F)F)c3)n2)CC1)N1CCCC1 [CBK286152] | 94.1825 |
| O=C(NCc1ccccn1)c1ccc(NS(=O)(=O)c2cccc(Cl)c2)cc1 [CBK267249] | 77.9544 |
| O=C(CN1CCN(c2ccccc2)CC1)Nc1ccc([N+](=O)[O-])cc1C(=O)c1ccccc1 [CBK265799] | 101.814 |
| CCCCNC(=O)c1ccc2nc(CC)c(N(C)CCC(C)C)n2c1 [CBK145477] | 98.2293 |
| O=C(O)CCC(=O)NCc1ccc2c(c1)OCO2 [CBK286930] | 111.72 |
| COc1ccc(C2CCN(CC(=O)N3CCCC3)CC2)cc1 [CBK283561] | 77.3045 |
| Cc1nn(CCCC(=O)Nc2sc3c(c2C#N)CCC(C(C)(C)C)C3)c(C)c1[N+](=O)[O-] (stereo not shown) [CBK268982] | 89.9048 |
| CCCC1=NN=C(c2cc(C(F)(F)F)ccc2C(F)(F)F)C1C(=O)OCC (stereo not shown) [CBK103527] | 21.5736 |
| COC(C)CN(C)C(=O)c1cc2cc(C)ccc2nc1C (stereo not shown) [CBK282036] | 97.0343 |
| O=C(O)c1ccc(/C=N/NC(=O)C2COc3ccccc3O2)cc1 (stereo not shown) [CBK261481] | 112.704 |
| Cc1oc2c(c1CC(=O)N(C)CCN(C)C)C(=O)CC(C)(C)C2 [CBK282171] | 80.6736 |
| CCOC(=O)c1cn([C@H](CO)CCSC)cc(Oc2ccccc2)c1=O [CBK307349] | 68.219 |
| Cc1ccc(C)c(NC(=O)CC2C(=O)N(c3ccccc3)C(=S)N2Cc2ccco2)c1 (stereo not shown) [CBK267119] | 102.658 |
| CNC(=O)C1(Cc2ccccc2-c2cccs2)CCN(C(=O)Cc2ccc(C)cc2)CC1 [CBK285697] | 123.832 |
| CSc1ncc(C(=O)N2CCN3CCN(C)CC3C2)c(=O)[nH]1 (stereo not shown) [CBK307677] | 60.1281 |
| COc1ccc(C(C)C)cc1-c1nccnc1N1CCCN(C)CC1 [CBK036677] | 84.6691 |
| Cc1cc2ccccc2n2c(=O)n(Cc3cscn3)nc12 [CBK282381] | 63.6536 |
| O=S(=O)(c1c(F)cccc1F)N1CCN(Cc2ccc3c(c2)OCO3)CC1 [CBK074600] | 86.856 |
| COc1cc2c(cc1OC)CN(C(=O)c1ccc3[nH]cnc3c1)CC2 [CBK295331] | 10.5183 |
| COC(=O)c1cc(Br)c(NC(=O)c2cccs2)cc1OC [CBK066842] | 145.235 |
| CC(=O)N1CCc2cc(Nc3ncnc4c3cnn4CCC#N)ccc21 [CBK305950] | 51.5331 |
| COc1ccc(S(=O)(=O)n2ccn(C(c3ccccc3)c3ccccc3)c2=O)cc1OC [CBK106621] | 89.1235 |
| CCN1CCC2(CC1)NC(=O)Cc1ccccc12 [CBK039810] | 86.9862 |
| N#CCCn1cc(C(=O)N2CCCCC2)c(-c2cccc(Cl)c2)n1 [CBK306209] | 70.0006 |

| Compound | % of control remaining |
| --- | --- |
| OCCNc1nc(Cl)nc(Nc2nc(-c3ccccc3)cs2)n1 [CBK261381] | 109.7 |
| CC1CCCCN1C(=O)c1ccc(-n2ccnc2)c(-n2cccc2)c1 (stereo not shown) [CBK284832] | 102.764 |
| O=C(NC(c1ccc(Cl)cc1)c1ccsc1)C1CCN(CCCN2C(=O)CC3CCCCC3C2=O)CC1 (stereo not shown) [CBK147974] | 100.661 |
| O=C(O)C(c1c[nH]c2ccccc12)N1CCN(S(=O)(=O)c2ccccc2)CC1 (stereo not shown) [CBK286643] | 83.2624 |
| O=C(CSc1nc2ccccc2c(=O)n1-c1ccc(F)cc1)Nc1ccc(C(=O)O)cc1 [CBK296140] | 45.1605 |
| CC(=O)NC(c1nccs1)C1CCN(C(=O)C(C)(C)C)CC1 (stereo not shown) [CBK284677] | 87.6789 |
| CCCCCn1c(=O)c(C(=O)Nc2cccc(O)c2)c(O)c2ccccc21 [CBK291189] | 81.1179 |
| COC(=O)[C@@H](C)NC(=O)[C@H]1CN(C(=O)c2cccnc2)CCN1C(=O)c1cccs1 [CBK289628] | 102.033 |
| CCOC(=O)c1sc2nc(C(C)N3CCCCC3)[nH]c(=O)c2c1C (stereo not shown) [CBK306078] | 67.9582 |
| Cc1cc2c(cc1C)OC1(C=C2)CCN(C(=O)N2CCOCC2)CC1 [CBK285314] | 72.1443 |
| NC(=O)CCN1CCCC2(CCN(C(=O)Cc3c[nH]c4ccccc34)C2)C1 (stereo not shown) [CBK132041] | 99.8262 |
| CC(=O)NCCc1nc2cc(NC(=O)Nc3ccccc3)ccc2n1C [CBK268216] | 91.4469 |
| CCCCC(c1cccnc1)N(C)C(=O)c1cccn(C)c1=O (stereo not shown) [CBK307496] | 82.8197 |
| NS(=O)(=O)c1ccc(NC(=O)CSc2cccc3ccccc23)cc1 [CBK268987] | 106.265 |
| Cc1ccc(S(=O)(=O)Nc2nc(C)cs2)cc1 [CBK102326] | 105.817 |
| COc1cc(/C=N/NC(=O)c2ccc([N+](=O)[O-])cc2)ccc1OC(C)=O [CBK261348] | 81.989 |
| CC(C)NCC(O)COCc1ccc(Cl)cc1 (stereo not shown) [CBK261406C] | 99.885 |
| CN(CC(=O)NNC(=O)c1ccc(C(C)(C)C)cc1)S(=O)(=O)c1cc(Cl)ccc1Cl [CBK267376] | 101.613 |
| Cn1c(=O)c2c(nc(CN3CCCCC3)n2CCCO)n(C)c1=O [CBK269280] | 103.615 |
| Brc1ccc(CN2CCN(Cc3c[nH]c4ccccc34)CC2)cc1 [CBK027622] | 60.0014 |
| O=C(CC1NCCNC1=O)Nc1cccc(Cl)c1 (stereo not shown) [CBK266454] | 90.4877 |
| COc1cc(CNc2cncc(-c3cccc(C(=O)NCCO)c3)n2)cc(OC)c1OC [CBK065421] | 91.8325 |
| Cn1nccc1C(=O)N[C@H]1CCC[C@@H](c2c[nH]c3ccccc23)C1 [CBK285073] | 117.307 |
| Cc1nc2ccccc2nc1SCc1nc(N)nc(N2CCCCC2)n1 [CBK270218] | 109.032 |
| Cc1ccc(-n2cc(-c3ccccc3)[nH]c2=O)cc1 [CBK288103] | 112.962 |
